This note sets out measurements from PubChem BioAssay AID463173 (ICCB-Longwood Screening Facility, Harvard Medical School, 2010).

Hit rate of the full screen: of about 52,000 compounds, about 1,700 (3.3%) were called active. Cut-off read from the data, not from the text of the source: active = survival mostly below about 52% (no sharp cut-off); inactive = mostly above about 56%. The list shows a part of the results.

The subject of this experiment is Wild type. Nature of the experiment: growth inhibition of S. aureus wild type versus tarO mutant, primary screen, teichoic acid synthesis inhibitors, RN4220, OD600 (AID 463173). The settings on record: S. aureus RN4220 wild type/DeltatarO growth, OD600, 18 h, stronger effect = lower value, screened at 18.75 µg/mL (by protocol).
Take `Cc1ccc(CN2C(=O)CC(c3ccc(Cl)cc3)c3c(C)nn(-c4nc(C)cc(C)n4)c32)cc1` (configuration not stated): the survival is inactive: 73%.
The same measure for `COc1ccc(-n2nc3c(c2NC(=O)C(=O)NCc2ccccc2)CSC3)cc1`: inactive: 69%; for `Cc1ccc(Cn2c3ccccc3c3cnn(CC(=O)N4CCCCCC4)c(=O)c32)cc1`: inactive: 22%; for `COC(=O)c1ccc(NC(=O)CSc2nccn2Cc2ccc(Cl)cc2)cc1`: inactive: 71%.
Take `COC(=O)c1cc2oc(C)cc2n1CC(=O)Nc1ccc(OC)c(OC)c1`: the survival is inactive: 123%.
Next, `CCOc1ccc(-n2c(=O)c3c(C)c(C)sc3n(Cc3c(F)cccc3Cl)c2=O)cc1`: inactive: 93%; `CCN1CCN(c2cc(C)c3cc(NC(=O)c4cc(OC)c(OC)c(OC)c4)ccc3n2)CC1`: inactive: 73%.
Next, `Clc1cccc(N2CCN(c3nc4ccccc4c4nc(-c5ccccc5)nn34)CC2)c1`: inactive: 86%; `CCOc1ccc(-c2nc(CSCC(=O)NCCc3ccccc3)c(C)o2)cc1`: inactive: 65%.
The same measure for `COc1ccc(N2C(=O)CS(=O)(=O)C23C(=O)N(Cc2ccccc2)c2ccccc23)cc1` (configuration not stated): inactive: 71%; for `COc1cccc(-c2nc(S(=O)(=O)c3ccc(C)cc3)c(NCc3ccccc3)o2)c1`: inactive: 141%; for `COc1ccc(CN=C(N)N=C(N)N)cc1`: inactive: 114%.
Regarding `Cc1cc(C)cc(NC(=O)Cn2c(=O)n(CCC(C)C)c(=O)c3cccnc32)c1`, the survival is inactive: 91%.
As for `CCc1ccc2oc(C(=O)N(Cc3cccc(Cl)c3)Cc3ccco3)c(C)c2c1`, the survival is inactive: 84%.
Next, `CCN(CC)C(C(=O)O)c1ccccc1` (configuration not stated): inactive: 97%.
Next, `Cn1c(=O)cc(SCC(=O)NCCc2ccc(Cl)cc2)c2cc(Cl)ccc21`: inactive: 70%; `COc1cccc(CNC(=O)CCCn2c(=O)c3cccn3c3ccc(F)cc32)c1OC`: inactive: 58%; `O=C(Cn1c2ncccc2c(=O)n1-c1ccccc1)Nc1cccc(C(F)(F)F)c1`: inactive: 74%.
Next, `Cc1ccc(C)c(NC(=O)Cn2cc(S(=O)(=O)N3CCCC3)c(S(=O)(=O)N3CCCC3)c2)c1`: inactive: 67%.
On to `Cc1cccc(NC(=O)CSc2nc(C)cc(C)c2C(=O)Nc2ccc(Cl)cc2)c1`, for which the survival is inactive: 86%.
As to `CCc1nn2c(=O)cc(COC(=O)c3cccc(NC(=O)COc4ccccc4F)c3)nc2s1`, the survival is inactive: 124%.
The same measure for `COc1ccc(Cl)cc1NC(=O)c1cc(=O)c2cc(C)cc(C)c2o1`: inactive: 87%; for `CCCC(c1nnnn1C(C)(C)C)N(Cc1ccco1)Cc1cc2ccc(C)cc2[nH]c1=O` (configuration not stated): inactive: 99%; for `CCc1nnc(SC(CC)C(=O)NCCOC)c2cc3occc3n12` (configuration not stated): inactive: 105%.
Next, `CCc1cccc(NC(=O)Cn2c(=O)n(Cc3ccccc3)c(=O)c3c(C)c(C(=O)N(C)C)sc32)c1`: inactive: 78%; `CCOc1ccccc1N(C)C(=O)c1cc(S(=O)(=O)NCc2ccc(C)cc2)ccc1F`: inactive: 119%; `CN1CCN(C(=O)c2cnn(-c3ccccc3)c2C2CCN(C(=O)OC(C)(C)C)CC2)CC1`: inactive: 136%.
The same measure for `COc1ccc(-c2nc3ccccc3o2)cc1NC(=O)COc1c(C)cc(Cl)cc1Cl`: inactive: 75%; for `Cc1ccc(CCNC(=O)Cn2ncc3c(=O)oc4ccccc4c32)cc1`: inactive: 137%.
Take `Cc1ccccc1-c1nc(CS(=O)(=O)CC(=O)Nc2c(C)cccc2C)c(C)o1`: the survival was inactive: 143%.
The same measure for `CCc1ccc2c(c1)c(=O)c(S(=O)(=O)c1ccccc1)cn2CC(=O)Nc1cc(C)ccc1C`: inactive: 82%; for `COc1cc(NC(=O)CN(C)S(=O)(=O)c2ccc3c(c2)CCCC(=O)N3)cc(OC)c1OC`: inactive: 81%.
The same measure for `CCC(=O)C1=C(c2cccc([N+](=O)[O-])c2)N(C(=O)CC)n2c(nnc2C2CCCCC2)S1`: inactive: 63%; for `Cc1cccc(-c2nc3c4ccccc4n(CC(=O)Nc4cccc(F)c4)c(=O)n3n2)c1`: inactive: 80%.
The same measure for `O=S1(=O)N=C(SCCO)c2ccccc21`: inactive: 112%.
With `Cc1ccc(NC(=O)c2nc[nH]c2C(=O)N2CCCCC2)c(C(=O)c2ccccc2)c1`, the survival is inactive: 110%.
Next, `CC(C)(C)OC(=O)N1CCC(c2c(C(=O)N3CCN(c4ccccc4F)CC3)cnn2C(C)(C)C)CC1`: inactive: 54%; `CCOC(=O)C1CCN(c2csc3ccc(C)cc3c2=O)CC1`: inactive: 94%; `COC(=O)c1cc2sc(C)cc2n1Cc1nc(-c2cccc(Br)c2)oc1C`: inactive: 81%.
The same measure for `O=C(NCc1ccccn1)c1cc2n(n1)C(C(F)(F)F)CC(c1ccco1)N2` (configuration not stated): inactive: 108%.
For `N#C/C(=C/c1ccccc1Cl)c1nc(-c2cc3ccccc3oc2=O)cs1`, the survival is inactive: 82%.
Take `O=C1SCCc2c1n(Cc1ccccc1)c1ccccc21`: the survival was inactive: 116%.
Regarding `O=C(/C=C/c1ccco1)N/C(=C\c1ccc2c(c1)OCO2)C(=O)N1CCCCCC1`, the survival was inactive: 123%.
The same measure for `COC(=O)c1cc(NC(=O)Cn2nc(-c3ccccc3)c3c(c2=O)CCCC3)cc(C(=O)OC)c1`: inactive: 55%; for `O=C(Cn1c(=O)n(CC2CCCO2)c(=O)c2ccccc21)Nc1ccc(F)cc1F` (configuration not stated): inactive: 87%.
The same measure for `COc1cc(C)ccc1OCCSc1nc2ccc(NC(=O)c3ccccc3F)cc2s1`: inactive: 118%.
Next, `Fc1ccc(NCc2ccccc2-c2nnc(-c3ccccc3Cl)o2)cc1Cl`: inactive: 89%.
As for `CCc1ccc(-c2cc(C)no2)cc1S(=O)(=O)NCc1ccc(OC)cc1`, the survival was inactive: 73%.
Next, `COc1ccccc1CC(=O)Nc1c[nH]c(=O)[nH]c1=O`: inactive: 99%.
With `CCOc1ccc(C(c2c(O)cc(C)n(CCOC)c2=O)N2CCN(c3ccc(F)cc3)CC2)cc1` (configuration not stated), the survival is inactive: 70%.
The same measure for `Cc1cccc2cc(-c3nc(-c4cccs4)no3)c(=O)oc12`: inactive: 96%; for `Cc1sc2ncn(CC(=O)N3CCN(c4cccc(Cl)c4)CC3)c(=O)c2c1S(=O)(=O)N1CCC(C)CC1`: inactive: 143%.
The same measure for `CCN(CC)C(=O)Cn1c(=O)n(CCCCCC(=O)NCc2ccc(C)cc2)c(=O)c2sccc21`: inactive: 85%; for `CCOc1ccc(-n2c(=O)c3c(C)c(C)sc3n(Cc3ccc(C(C)(C)C)cc3)c2=O)cc1`: active: 19%; for `CC(=O)N1CCc2c(sc3c2c(=O)n(-c2cc(Cl)ccc2C)c(=O)n3C)C1`: inactive: 119%.
For `CCN1C(=O)Cc2cc(S(=O)(=O)N3CCOCC3)ccc21`, the survival was inactive: 90%.
The same measure for `CCOC(=O)c1cc2sccc2n1CC(=O)NC(C)C`: inactive: 100%; for `COc1ccc(Cl)cc1NC(=O)COc1cccc2c(=O)n(C)ccc12`: inactive: 70%.
In the case of `COC(=O)c1ccc(NC(=O)CN(C)S(=O)(=O)c2ccc3c(c2)CCCC(=O)N3)cc1`, the survival is inactive: 55%.
Next, `CCCCNC(=O)Cn1nc(N2CCN(c3ccccc3OC)CC2)ccc1=O`: inactive: 80%; `CCCCn1c(CNc2ccc(C)cc2)nnc1SCC(=O)OC`: inactive: 120%; `CC1=NN(c2ccc(N)cc2)C(=O)C1`: inactive: 106%.
The same measure for `COc1cccc(C(=O)N2CCc3cc(OC)c(OC)cc3C2COc2ccc3c(C)cc(=O)oc3c2)c1` (configuration not stated): inactive: 70%.
The same measure for `CCn1cc(S(=O)(=O)c2cc(C)cc(C)c2)c(=O)c2cc(F)c(N3CCN(c4ccccc4)CC3)cc21`: inactive: 63%.
As for `CCOc1ccc(-c2cc(CCCC(=O)NCCc3ccc(SC)cc3)no2)cc1`, the survival was inactive: 69%.
Next, `COc1ccc(OCC(=O)N2CCN(C(=O)c3cccc(OC)c3OC)CC2)cc1`: inactive: 80%.
In the case of `CC(C)Oc1ccc2ccc(=O)oc2c1`, the survival was inactive: 104%.
Next, `CCCCN(C(=O)CCn1c(=O)oc2ccccc21)c1ccccc1`: inactive: 71%; `COc1cc(NC(=O)c2noc3c2CC(C(C)(C)C)CC3)cc(OC)c1OC` (configuration not stated): inactive: 68%.
As for `CC1CCCCN1C(=O)c1ccccc1NS(=O)(=O)c1ccc(F)cc1` (configuration not stated), the survival was inactive: 107%.
The same measure for `COCCn1c(C)cc(O)c(C(c2ccccc2Cl)N2CCN(c3ccccc3)CC2)c1=O` (configuration not stated): inactive: 79%; for `O=C(NCC(c1ccco1)S(=O)(=O)c1cccs1)c1c(F)cccc1F` (configuration not stated): inactive: 66%.
Next, `CCN(CC)C(=O)c1sc2c(c1C)c(=O)n(Cc1ccccc1)c(=O)n2Cc1c(C)cc(C)cc1C`: inactive: 65%; `Cc1nn(-c2ccc(N3CCCC3)nn2)c(C)c1CCC(=O)N1CCN(c2ccc(F)cc2)CC1`: inactive: 128%.
Next, `O=C(NCC(c1cccnc1)N1CCc2ccccc21)c1cccc(F)c1` (configuration not stated): inactive: 79%; `CCOC(=O)c1ccc(NC(=O)c2c(NCc3ccc(OC)c(OC)c3OC)sc3c2CCC(C)C3)cc1` (configuration not stated): inactive: 124%; `Cc1cccc(NC(=O)Cn2c(=O)n(CC3CCC(C(=O)NCCc4ccccc4)CC3)c(=O)c3ccccc32)c1C` (configuration not stated): inactive: 74%.
For the molecule `Cc1ccc2[nH]c(C)c(CCNC(=O)c3cc4cc(Br)ccc4oc3=O)c2c1`, the survival is inactive: 71%.
Next, `Cc1ccc(NS(=O)(=O)c2ccc3[nH]c4c(c3c2)CCCCCC4)cc1C`: active: -3%; `CCOc1ccc(S(=O)(=O)Nc2ccc3c(c2)CCCN3S(=O)(=O)c2ccc(C)cc2)cc1`: inactive: 78%; `Cc1ccc(CNC(=O)c2cc(NS(=O)(=O)c3ccc(C)cc3)ccn2)cc1`: inactive: 66%.
Next, `CCOC(=O)c1cc(S(=O)(=O)N(C)c2ccccc2)[nH]n1`: inactive: 133%; `O=c1cc(Nc2cccc(Br)c2)[nH]c(=O)[nH]1`: inactive: 105%.
The same measure for `CCOc1ccccc1CNC(=O)CCCn1c(=O)c2cccn2c2ccc(F)cc21`: inactive: 52%; for `COC(=O)c1sc2cccc(F)c2c1S(=O)(=O)NCc1ccccc1Cl`: inactive: 78%; for `COc1ccc(NC(=O)CN(C)S(=O)(=O)c2ccc3nc(C)sc3c2)cc1Cl`: inactive: 86%.
For the molecule `Cn1c(C(=O)NCc2ccccc2F)cc2cc(S(=O)(=O)N3CCCCC3)ccc21`, the survival is inactive: 70%.
